# Source: PubChem BioAssay AID1347120 (National Center for Advancing Translational Sciences (NCATS), 2019)
# In all, about 390,000 compounds went through this assay and about 930 (0.24%) were called active. This list was built around the results that the source calls inconclusive (neither active nor inactive); the mix of calls is not that of the screen. Calls come from the whole dose curve; as a rule, active = well fitted activation curve with a large enough effect; inconclusive = small, poorly fitted or top-dose-only effect; inactive = no such curve, though single readings can be large or run the other way. A potency beside an inconclusive call is a rough fit, not a confirmed value.
# Assay: qHTS for Suppressors of FUS Proteinopathy: Primary screen using FUS-linked yeast assay; note: nearly all actives have a fitted effect of over 55% in size
# Details: S. cerevisiae FUS-expressing, OD600, 24 h; Potency: growth rescue; series mostly up to 76.6 µM
# Outline: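 Galactose (2%) drives FUS expression in yeast precultured in raffinose; seeding density OD 0.005. Test compounds incubated 24hr at 30C and 99% humidity before absorbance at 600 nm was measured.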
# Potency is the fitted concentration of half-maximal effect; tags give direction and shape of the fitted curve.
row,Compound,Potency
1,CC(C)C[C@@H](COCc1ccc([N+](=O)[O-])cc1)N1CCN(C(=O)c2ccc(C(F)(F)F)cc2)CCC1=O,"inconclusive: 25.1 µM [activator, single point]"
2,C[C@@H]1CCCCO[C@H](CN(C)C(=O)c2ccccc2)[C@@H](C)CN([C@H](C)CO)C(=O)c2cc(NC(=O)NC3CCCCC3)ccc2O1,"inconclusive: 25.1 µM [activator, partial curve]"
3,Cc1cc(NC(=O)CCCSc2nc(-c3ccco3)cc(C(F)(F)F)n2)n(-c2ccccc2)n1,"inconclusive: 28.2 µM [activator, single point]"
4,COC(=O)[C@]12CCCCC=C1N(Cc1ccc3c(c1)OCO3)C(=O)[C@H](CC(=O)NCc1ccc(OC)c(OC)c1)C2,"inconclusive: 10 µM [activator, partial curve, poor fit]"
5,Cc1cnc(NC(=O)c2ccc3c(c2)C(=O)N(Cc2ccco2)C3=O)s1,inactive
6,CCCC(C)NC(=O)CN1C(=O)c2cccc3cccc1c23 (stereo not given),inactive
7,CCc1ccc(C(=O)NNc2ccc(C)c(Cl)c2)cc1,inactive
8,COC(=O)[C@]12C[C@H](CC(=O)N3CCN(C(=O)C4CC4)CC3)C(=O)N(Cc3cccc4ccccc34)C1=C[C@H](COCc1ccccc1)O[C@@H]2C,"inconclusive: 28.2 µM [activator, partial curve, poor fit]"
9,CS(=O)(=O)N(CC(O)CON=C1c2ccccc2-c2ccccc21)c1ccc(F)cc1 (stereo not given),"inconclusive: 2.24 µM [activator, full curve, poor fit]"
10,Cc1ccc(OCC(=O)N2CCN(c3nnc(-c4ccc(C)cc4)c4ccccc34)CC2)cc1,"inconclusive: 50.1 µM [activator, partial curve, poor fit]"
11,COc1cc(C(=O)NCC(=O)N/N=C/c2ccc(-c3cccc([N+](=O)[O-])c3)o2)cc(OC)c1OC,"inconclusive: 39.8 µM [activator, single point]"
12,COc1ccc(-c2nc(Cn3c(SCc4ccccc4F)nc4cccnc43)c(C)o2)cc1,inactive
13,COc1cc(C(C(=O)NC2CCCCC2)N(C(=O)Cc2c[nH]c3ccccc23)c2ccccc2C)cc(OC)c1OC (stereo not given),active: 22.4 µM
14,O=C(NC1CCCC1)C(c1c[nH]c2ccccc12)N(C(=O)Cn1nnc(-c2ccc(Cl)cc2)n1)c1ccccc1 (stereo not given),"inconclusive: 3.98 µM [activator, full curve, poor fit]"
15,CC(C)C[C@H](NC(=O)OC(C)(C)C)C(=O)N/N=C/C1=Cc2ccccc2OC1C (stereo not given in full),"inconclusive: 17.8 µM [activator, partial curve, poor fit]"
